# Assay results as given in PubChem BioAssay AID1347044 (National Center for Advancing Translational Sciences (NCATS), 2019).
# Values joined by “and” are separate entries in the source; they are usually repeats but may differ in a detail not shown here. Equal values may be shown once. The list shows a part of the results. These are further read-outs of the screen, such as a control signal, another cell line or another target. No call is given for them. Most of these compounds were active or inconclusive in the main read-out, so they are no random draw. Words in brackets tell the shape of the fitted curve; partial curves, single points and poor fits give uncertain potencies.
# Test: Natriuretic polypeptide receptor (hNpr1) antagonism - Confirmation; also: nearly all actives have a fitted effect of over 70% in size
# Settings: HEK293 hNpr1 cGMP GloSensor luminescence, ANP-stimulated; measured here: HEK-hNpr1 cytotoxicity, CellTiter-Glo
# In short: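 Compound (30 min, room temperature) preceded stimulation with hNppA peptide at 0.1 nM final for 20 min. Cells were HEK293 carrying hNpr1 plus GloSensor pGS-40F cGMP biosensor, pre-equilibrated 2 h with 2% substrate; cGMP was followed as luminescence pre- and post-agonist.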
# Tags tell the direction and shape of the fitted curve.
row,Structure (SMILES),CC50
1,CC(C)CNC(=O)N1CC(Oc2ccc(-c3noc(C4CCOCC4)n3)cc2)C1,"5.44 µM [falling, full curve]"
2,Cc1ccc(OCC(=O)N2CCC(Cc3nc(-c4ccccc4)no3)CC2)cc1,"21.7 µM [falling, partial curve]"
3,Cc1ccc(NC(=O)O[C@@H]2CC[C@]3(C)[C@H](CC[C@H]4OC(=O)C[C@H]43)[C@]2(C)CO)cc1,"39.6 µM [falling, partial curve]"
4,O=C(Cc1ccc(F)cc1)N1CCN(c2cc(-c3ccc(Cl)cc3)[nH]n2)CC1,"43.2 µM [falling, single point]"
5,O=S(=O)(c1ccccc1)N1CCCC(c2nc(CCOCC3CCCC3)no2)C1 (stereo unspecified),"30.6 µM [falling, single point]"
6,COc1ccccc1CC(=O)N1CCCc2ncc(C(=O)Nc3cccc(F)c3)cc21,"35.3 µM [falling, partial curve]"
7,FC(F)(F)c1ccc(CN2CCC3(CC2)CC(c2cccnc2)=NO3)cc1,"19.3 µM [falling, partial curve] and 10.9 µM [falling, partial curve]"
8,CC(C)(C)CC(=O)N[C@H]1C[C@@H](Cc2cc(CN3CCN(c4ccccc4)CC3)on2)C1(C)C,"3.43 µM [falling, full curve]"
9,c1ccc2ncc(CNC[C@H]3COCc4nc5ccccc5n43)cc2c1,"31.4 µM [falling, partial curve]"
10,Cc1ccc(NC(=O)C2CCN(c3cc(C(F)(F)F)ncn3)CC2)cc1Cl,"19.3 µM [falling, partial curve]"
11,COc1cc(F)cc(-c2cnc3[nH]cc(CC(=O)NCc4cccnc4)c3c2)c1,"35.3 µM [falling, partial curve]"
12,Cc1cccc2c1nc1n2[C@@H](CNCc2ccccc2)COC1,"28 µM [falling, partial curve]"
13,O=C(Cc1ccc(F)cc1)N1CCN(C(=O)c2nnn3c2COC(c2ccc(Cl)cc2)C3)CC1 (stereo unspecified),"30.6 µM [falling, single point]"
14,COc1cccc(-c2noc(CC3CCN(C(=O)c4ccc(C)cc4)CC3)n2)c1,"9.68 µM [falling, full curve]"
15,CCc1ccc(NC(=O)C2CCN(c3cc(C(F)(F)F)ncn3)CC2)cc1,"9.68 µM [falling, partial curve]"
16,Fc1ccc(-c2cnc([C@@H]3COCCN3Cc3c[nH]c4ccccc34)[nH]2)c(F)c1,"39.6 µM [falling, partial curve]"
17,CC1=C[C@@H](CN2CCOCC2)[C@H](C(C)C)C[C@H]1Cc1nnc(-c2ccncc2)o1,"35.3 µM [falling, partial curve, poor fit]"
18,O=C(c1ccc(F)c(Cl)c1)N1CCC(Cc2nc(-c3cnccn3)no2)CC1,"38.5 µM [falling, single point]"
19,COc1ccc(S(=O)(=O)N2CCC3(CC2)CC(N(C)Cc2ccccc2)CCO3)cc1 (stereo unspecified),"24.3 µM [falling, partial curve]"
20,CCNC(=O)Cc1c[nH]c2ncc(-c3ccccc3C)cc12,"31.4 µM [falling, partial curve]"
21,O=C(Nc1ccccc1)c1cc2n(n1)CC(c1ccc(Br)cc1)OC2 (stereo unspecified),"30.6 µM [falling, single point]"

row,Structure (SMILES),CC50
1,CC1=C[C@@H](CN(C)Cc2cccnc2)[C@H](C(C)C)C[C@H]1Cc1nnc(-c2ccc([N+](=O)[O-])cc2)o1,"19.3 µM [falling, partial curve]"
2,Cc1nc2cccnc2n1CC1CCCN(S(=O)(=O)c2ccc(C(C)C)cc2)C1 (stereo unspecified),"21.7 µM [falling, partial curve]"
3,CCCCOc1ccc(C(=O)N2CCC(Cc3nc(-c4ccccc4)no3)CC2)cc1,"12.2 µM [falling, partial curve]"
4,O=C(CCc1ccccc1)N1CC(Oc2ccc(-c3noc(C4CC4)n3)cc2)C1,"21.7 µM [falling, partial curve]"
5,COc1ccc(C(=O)NC2CCCN(c3cc(-c4ccc(Cl)cc4)[nH]n3)C2)c(C)c1 (stereo unspecified),"43.2 µM [falling, single point]"
6,COc1cc(Cl)ccc1C(=O)N1CCC(Cc2nc(-c3ccc(F)cc3)no2)CC1,"5.44 µM [falling, full curve]"
7,Cc1ccc(OCCC2CCN(C(=O)CCCC(=O)n3nc(C)c4ccccc43)C2)cc1 (stereo unspecified),"15.3 µM [falling, partial curve]"
8,Cc1nn(C)cc1C(C)NC(=O)CN1CCCc2nc(-c3ccccc3)ncc2C1=O (stereo unspecified),"21.7 µM [falling, partial curve]"
9,O=C(c1ccncc1)N1CC2CCC(C1)N2Cc1ccc(-c2cccs2)cc1,"5.44 µM [falling, full curve]"
10,COc1ccc(C(=O)N2CCN(c3cc(-c4ccc(Cl)cc4)[nH]n3)CC2)cc1F,"19.3 µM [falling, partial curve]"
11,COc1ccc(C(=O)N2CCC(Cc3nc(-c4ccc(F)cc4)no3)CC2)cc1F,"1.72 µM [falling, full curve]"
12,O=C(NC1CCCc2c1cnn2-c1ccc(F)cc1F)c1ccsc1 (stereo unspecified),"21.7 µM [falling, partial curve]"
13,O=C(c1ccc(F)cc1F)N1CCN(c2cc(-c3ccc(Cl)cc3)[nH]n2)CC1,"19.3 µM [falling, partial curve]"
14,O=C(C1CC1)N1CCC(n2cc(-c3nc(-c4ccccc4)no3)nn2)CC1,"24.3 µM [falling, single point]"
15,O=C(N1CCCN(c2cc(-c3ccc(Cl)cc3)[nH]n2)CC1)C1(c2ccccc2)CC1,"21.7 µM [falling, partial curve]"
16,Cc1cc(C)c(S(=O)(=O)N2CC(c3nc(-c4ccncc4)no3)C2)c(C)c1,"24.3 µM [falling, partial curve]"
17,O=[S+]([O-])(Nc1ccccc1)c1ccc2c(c1)OCCN(Cc1ccncc1)C2,"44.4 µM [falling, single point]"
18,COc1ccc(C(=O)N2CCC3(CC2)N=C(c2cccc(Br)c2)NO3)c(OC)c1,"21.7 µM [falling, partial curve]"
19,COc1cccc(-c2noc(CC3CCN(C(=O)c4ccc(C(C)C)cc4)CC3)n2)c1,"19.3 µM [falling, partial curve]"
20,Cc1ccccc1-c1cnc2[nH]cc(CC(=O)NC(C)C)c2c1,"28 µM [falling, partial curve]"
21,Cc1nc2ccccn2c1C(=O)NC(C)c1cnn(-c2ccccn2)c1C (stereo unspecified),"13.7 µM [falling, partial curve]"

row,Structure (SMILES),CC50
1,O=C(Nc1ccc(F)cc1)C1CCc2nc(N3CCN(C(=O)C4CCC4)CC3)sc2C1 (stereo unspecified),"9.68 µM [falling, full curve]"
2,Cc1nsc(NC(=O)NC23CC4CC(C2)CC(C(C)C)(C4)C3)n1,"27.3 µM [falling, partial curve]"
3,COc1ccc(-c2noc(CC3CCN(C(=O)c4ccccc4C)CC3)n2)cc1,"19.3 µM [falling, partial curve]"
4,CCc1noc(CC2CCOC3(CCN(S(=O)(=O)c4cccc(Cl)c4)CC3)C2)n1 (stereo unspecified),"21.7 µM [falling, partial curve]"
5,CC(C)c1ccc(CC(=O)N2CCCc3ncc(C(=O)Nc4cccnc4)cc32)cc1,"35.3 µM [falling, partial curve]"
6,COc1cccc(-c2noc(CC3CCN(C(=O)c4ccc(F)cc4)CC3)n2)c1,"10.9 µM [falling, partial curve]"
7,CC(C)c1noc(-c2cn(C3CCCN(C(=O)c4cccc5[nH]ccc45)C3)nn2)n1 (stereo unspecified),"24.3 µM [falling, partial curve]"
8,Cc1ccc(-c2ccc(O)cn2)c2cccnc12,"27.3 µM [falling, single point]"
9,COc1ccc(CCC(=O)N2CCC(Cc3nc(-c4ccc(F)cc4)no3)CC2)cc1,"10.9 µM [falling, partial curve]"
10,Cc1nn(C)c(C)c1CCCN(C)C(=O)c1ccc2c(c1)C(O)CCCCCN2C (stereo unspecified),"13.7 µM [falling, partial curve]"
11,COCc1cc(N2CCc3onc(-c4cccc5ccccc45)c3C2)ncn1,"21.7 µM [falling, partial curve]"
12,Cc1cc(=O)n(CC(=O)Nc2ccc(F)c(Cl)c2)c(N(C)Cc2ccccc2)n1,"19.3 µM [falling, partial curve]"
13,COc1ccc(C(=O)Nc2ccc(-c3noc([C@@H]4CCCN4CCCc4ccccc4)n3)cn2)cc1,"15.3 µM [falling, partial curve]"
14,O=C(c1ccc2c(c1)OCO2)N1CCCN(c2cc(-c3ccc(Br)cc3)[nH]n2)CC1,"21.7 µM [falling, partial curve]"
15,O=C(Cc1ccccc1F)N1CC(Oc2ccc(-c3noc(-c4cccnc4)n3)cc2)C1,"24.3 µM [falling, partial curve]"
16,COc1ccc(CN2C[C@H]3CN(Cc4ccc(C)cc4)CCN3C2=O)cc1,"28 µM [falling, partial curve]"
17,COc1ccc(-c2nc(CC3CCN(C(=O)c4n[nH]c(=O)c5ccccc45)C3)no2)cc1 (stereo unspecified),"17.2 µM [falling, partial curve]"
18,O=C1NCCCCCCN(Cc2cccc(F)c2)[C@H]2C[C@H](C(=O)N3CCc4ccccc4C3)C[C@@H]12,"43.2 µM [falling, single point]"
19,O=C(NCc1ccccc1)c1csc(N2CCN(c3ccc(Cl)cc3)CC2)n1,"21.7 µM [falling, partial curve]"
